# Results taken from the supplement of paper PMC3334620.
# The full ranking holds about 33,000 sequences; the median of “E-score (-0.5 to 0.5)” is about -0.035, and the highest 2% start at about 0.34. The list shows a part of the results.
# Biological target: T1, Mot3 (UniProt P54785)
# T1 sequence: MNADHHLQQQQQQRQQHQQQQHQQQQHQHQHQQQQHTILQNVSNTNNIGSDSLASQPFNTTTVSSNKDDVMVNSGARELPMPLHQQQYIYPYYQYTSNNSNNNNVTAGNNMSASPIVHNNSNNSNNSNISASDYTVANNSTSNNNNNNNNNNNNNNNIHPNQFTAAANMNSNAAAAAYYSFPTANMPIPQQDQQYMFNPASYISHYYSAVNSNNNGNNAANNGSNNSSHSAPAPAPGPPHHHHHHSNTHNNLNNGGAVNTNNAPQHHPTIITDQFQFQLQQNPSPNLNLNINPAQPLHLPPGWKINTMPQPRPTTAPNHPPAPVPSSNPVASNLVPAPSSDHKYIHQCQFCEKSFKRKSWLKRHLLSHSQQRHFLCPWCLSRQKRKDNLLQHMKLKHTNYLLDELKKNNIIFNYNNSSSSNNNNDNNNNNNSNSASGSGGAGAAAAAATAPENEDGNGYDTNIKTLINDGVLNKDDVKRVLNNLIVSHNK
# Assay: PBM E-score (8-mer binding enrichment) (E-score (-0.5 to 0.5)); higher = stronger / more preferred TF binding; most listed sequences are background and not binding sites
# Details: protein concentration: 200 nM; construct: GST-full length
# In short: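 Bound GST-tagged yeast transcription factors, applied at about 100-200 nM to double-stranded universal all-10-mer Agilent arrays, were detected with fluorescent anti-GST. Scans were normalised with masliner. A modified Wilcoxon-Mann-Whitney statistic, the E-score, was assigned to each ungapped eight-base word pooled with its reverse complement by the Universal PBM Analysis Suite.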
row,Sequence,PBM E-score
1,AGATAGCA,-0.126
2,AGAAGGAA,0.382
3,ACGGGAAC,-0.0929
4,CGATAGTA,-0.0543
5,CGATTGAA,-0.134
6,AGGCCACG,0.217
7,TAGCGCGA,-0.0707
8,CTGTTTGC,0.17
9,CTACATGA,0.361
10,ACGCACCA,-0.0561
11,CATTCTAA,0.0389
12,AATCACTC,-0.076
13,ATCAGAGA,-0.113
14,CATATACC,-0.0726
15,GTTTCGCA,-0.157
16,GGGGCAGA,-0.114
17,ACCCGCGT,0.168
18,TACTATCA,-0.0138
19,AGGTTTCA,0.0712
20,ACTGAGTG,-0.0128
21,GAAGTGTC,-0.175
22,CCTGCTGC,0.172
23,ACTAAGCA,0.107
24,CGTGGGAG,-0.217
25,CCGAACCC,-0.187

row,Sequence,PBM E-score
1,CTTCCTAA,0.0478
2,CCGCACTA,-0.105
3,ATATGTCC,-0.0425
4,ACCCCCAT,-0.244
5,CCCGAGTA,-0.0838
6,CCCCAAAC,-0.0441
7,ACTCGAAG,0.0469
8,CCCTCTCA,-0.348
9,TAATCCAA,0.128
10,GTCAGCAC,-0.131
11,CTTGATAA,0.133
12,GCCACGAA,-0.133
13,ATACTTTC,0.0999
14,ACTCTGTC,-0.059
15,AAAACAGA,-0.00096
16,CGCTCGCA,-0.241
17,AGGCAAAA,0.467
18,ATCACAGA,-0.0135
19,AATTACGC,0.33
20,CTGACGGC,-0.233
21,GGAACTAA,-0.0392
22,AGCCAGAT,-0.0744
23,GCCGCTTA,-0.156
24,CCGAAGAG,-0.233
25,GGGCGTGA,-0.066

row,Sequence,PBM E-score
1,ACCGAGAG,-0.173
2,AACGGACC,-0.0489
3,ACAAGTTC,-0.0534
4,AGCTGTCG,-0.0998
5,CCAATGAG,-0.038
6,TATACAAA,0.165
7,GTCGACAA,-0.0509
8,CTACCGGA,-0.289
9,TCGGTTCA,-0.125
10,CACCTATC,0.0654
11,CACCTGAA,0.0716
12,CTGCTTTA,0.102
13,GGACAGTA,0.282
14,ACAGTAAT,0.0145
15,GCTCGACC,-0.199
16,TAAAATAA,0.0938
17,CGGACTTC,-0.32
18,AAGTCGCG,-0.0309
19,AACGAGCG,0.0698
20,AATCTGGC,-0.0136
21,GATGCTCA,-0.084
22,ATTCTGCG,-0.0434
23,CCCTGGTA,-0.363
24,GTCGACGA,-0.0203
25,TACGTCCA,-0.0528

row,Sequence,PBM E-score
1,ACGGCGAA,0.123
2,ATCTGTAC,0.0132
3,CATGAAAC,0.0415
4,GGAGTGGA,-0.148
5,GAAAGGCA,0.469
6,CAACCTAA,0.192
7,CTGGTGCC,0.272
8,AAATAACT,0.228
9,CATTAAGG,0.113
10,AGCTATGG,-0.363
11,CGACACCG,-0.102
12,ACGCCCGT,0.0313
13,CGTTGAGC,-0.0134
14,TGGACGAA,0.0129
15,ATACCATA,0.0582
16,GTATAGAA,0.00862
17,CAAAGAAC,0.197
18,ACCTCAAC,-0.0649
19,CCATCAGA,-0.195
20,CTGACGTA,0.0138
21,CTCGGTGA,-0.2
22,CCCTCAAG,-0.0978
23,AGGATCAC,0.0739
24,ACTGTATA,0.0898
25,CTAGCGTC,-0.282

row,Sequence,PBM E-score
1,ATGAACGG,0.0117
2,AGTGATCG,-0.0985
3,CGGTTCAG,-0.077
4,GGGTGAGA,-0.224
5,CAGAAATG,0.00635
6,ACAGCCCC,-0.088
7,CCCTGACC,-0.00205
8,CACCACAG,-0.129
9,ACCAAACA,0.186
10,ATGATAGA,-0.00308
11,CCTACAAG,0.164
12,GAGAGATA,-0.151
13,CGACTCTA,-0.265
14,ACGCGATG,0.255
15,CCAGAAGA,-0.171
16,CCTTTCAA,-0.0166
17,GCGCAGAC,-0.0986
18,AAGGCTTC,0.0148
19,CTCCCGAC,-0.251
20,GCTAAAGC,-0.253
21,CCTAGATC,-0.0674
22,ATTATTGG,-0.116
23,CGTACAGC,0.0264
24,GCGAGCCA,-0.196
25,CAGATCGG,-0.144

row,Sequence,PBM E-score
1,ACTCTGCA,-0.0354
2,AACCCATC,-0.064
3,CCCGTAAG,-0.00074
4,ACCATTTC,-0.123
5,GTAGTGTA,0.224
6,CCTCTTTA,0.0245
7,ATGGACAT,0.0966
8,ATGCACTA,0.0858
9,GTTATTCA,0.183
10,CCAATTGA,-0.105
11,CAAAATAC,0.249
12,AGCGATAT,0.0262
13,GCCCTCCC,-0.206
14,ATCACCTG,-0.109
15,CGCCACCC,-0.0907
16,GGCAAGAC,0.291
17,TAAGTGAA,-0.0383
18,GACCCAAA,-0.074
19,CATGGACA,0.0261
20,CAGCTATG,-0.132
21,CCGCTTGA,-0.112
22,TAGGGCAA,0.046
23,CAGTCATA,-0.0483
24,ACCCGACC,-0.0746
25,GATCGACC,-0.158

row,Sequence,PBM E-score
1,ATAATGTA,0.192
2,CAGTGTTA,0.212
3,GCGTGGCA,-0.228
4,AACAGGCG,0.167
5,ACTCTACG,0.117
6,ACAGCGTA,-0.0378
7,GAAGGACA,0.128
8,AGTTTCTC,-0.214
9,AAATGTAA,0.346
10,GGAAACCA,0.0901
11,ACTTGTCG,-0.162
12,CAATCAAC,0.148
13,GGCCTGAA,-0.277
14,CTACAAAG,0.124
15,CTACCCAA,0.0795
16,GTCGCGCA,-0.148
17,CATGTCCA,0.121
18,CATTCAGC,-0.12
19,AAGGGCAA,0.127
20,ATACCCCG,-0.0852
21,GATCAGAA,-0.348
22,AGTGACAG,-0.0401
